Data published in PubChem BioAssay (Tox21).
Inconclusive results, whose numbers are uncertain, are shown with a selection of clear calls. For some of these results: Potencies of inconclusive entries are doubtful fits and often do not repeat. A structure can be active in one record and inactive in another. Calls of active or inactive are those of the source. Unless noted, the call rests on the fitted dose curve; in most records, active means well fitted curve in the direction sought with a large enough effect in the repeat runs; inconclusive means weak or mixed curves; inactive means no such curve, though single readings can be large; an effect the other way counts as inactive or inconclusive.

How the values were obtained:
[1] = qHTS assay to identify small molecule antagonists of the peroxisome proliferator-activated receptor gamma (PPARg) signaling pathway - cell viability counter screen (AID 743194); details: PPARg-bla HEK293H viability, CellTiter-Glo luminescence, 17 h; Potency: co-treated with 50 nM rosiglitazone unless noted; activity change, negative = cytotoxicity: at 62.6 µM (top of the series), co-treated with 50 nM rosiglitazone unless noted; further: nearly all actives have a fitted effect of over 55% in size; further: potency means the concentration at half of the fitted maximal effect
Outline: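 Viability was measured as CellTiter-Glo luminescence in GeneBLAzer PPARg UAS-bla HEK293H cells. These cells had been exposed 17 h at 37 C to compounds together with rosiglitazone at 50 nM final, with the beta-lactamase readout taken in the same wells.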

[2] = qHTS assay for small molecule agonists of the antioxidant response element (ARE) signaling pathway (AID 743202; active means well fitted activation curve with a large enough effect in the signal ratio in the repeat runs, not every such curve was filed as active; inconclusive means weak or mixed curves, or effect the other way; inactive means no such curve, though single readings can be large or run the other way; the % refers to the signal ratio; further: potency means the concentration at half of the fitted maximal effect); details: HepG2 ARE-bla reporter, beta-lactamase FRET, 16 h; activation: at 73.3 µM (top of the series) unless noted
Outline: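 Beta-lactamase reporter activity, read as fluorescence intensity, reflects ARE/Nrf2 pathway induction in HepG2 cells after 16 h compound exposure at 37 C; substrate loading was 2 h at room temperature.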

[3] = qHTS assay for small molecule activators of the heat shock response signaling pathway - cell viability counter screen (AID 743209); details: HSE-bla HeLa viability, CellTiter-Glo luminescence, 5 h; activity change, negative = cytotoxicity: at 62.6 µM (top of the series) unless noted; further: potency means the concentration at half of the fitted maximal effect; nearly all actives have a fitted effect of over 50% in size
Outline: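 Cytotoxicity counter screen run in parallel with the HSE beta-lactamase reporter, using the same wells. HeLa HSE-bla cells received compound for 5 h at 37 C; ATP-based CellTiter-Glo luminescence was measured after 30 min at room temperature.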

[4] = qHTS assay to identify small molecule agonists of the peroxisome proliferator-activated receptor delta (PPARd) signaling pathway - cell viability counter screen (AID 743211); details: PPARd-bla HEK293H viability, CellTiter-Glo luminescence, 17 h; activity change, negative = cytotoxicity: at 62.6 µM (top of the series) unless noted; further: potency means the concentration at half of the fitted maximal effect; nearly all actives have a fitted effect of over 55% in size
Outline: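 Counter screen for cytotoxicity run in parallel with the PPARd reporter screen. Beta-lactamase reporter HEK293H cells exposed to compounds 17 h; ATP-based CellTiter-Glo luminescence quantified viability.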

[5] = target: Peroxisome proliferator-activated receptor delta (Homo sapiens) (UniProt Q03181); assay: qHTS assay to identify small molecule agonists of the peroxisome proliferator-activated receptor delta (PPARd) signaling pathway (AID 743212; calls by dose curve; further: potency means the concentration at half of the fitted maximal effect); details: HEK293H PPARd-UAS-bla, beta-lactamase FRET ratio, 17 h; activation: at 62.6 µM (top of the series) unless noted
Chain of UniProt Q03181 (Q03181 whole entry, looked up): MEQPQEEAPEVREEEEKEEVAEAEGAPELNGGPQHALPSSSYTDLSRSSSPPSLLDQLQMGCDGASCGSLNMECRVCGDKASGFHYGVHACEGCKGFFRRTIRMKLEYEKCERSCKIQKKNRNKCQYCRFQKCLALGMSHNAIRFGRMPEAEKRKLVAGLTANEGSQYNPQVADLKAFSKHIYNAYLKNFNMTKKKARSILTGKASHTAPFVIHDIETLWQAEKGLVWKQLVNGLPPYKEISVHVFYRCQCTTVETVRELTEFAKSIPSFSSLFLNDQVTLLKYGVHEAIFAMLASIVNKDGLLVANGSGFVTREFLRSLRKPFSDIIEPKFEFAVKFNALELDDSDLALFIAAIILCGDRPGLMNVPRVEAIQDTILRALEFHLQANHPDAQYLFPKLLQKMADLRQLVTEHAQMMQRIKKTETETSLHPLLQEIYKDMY
Outline: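 Steps: seed PPARd-bla HEK293H cells; incubate 5 h, 37 C, 5% CO2; add compounds in DMSO; incubate, 37 C; add LiveBLAzer B/G FRET substrate; hold 2 h at room temperature; measure fluorescence.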

[6] = qHTS assay to identify small molecule antagonists of the peroxisome proliferator-activated receptor delta (PPARd) signaling pathway - cell viability counter screen (AID 743213); details: PPARd-bla HEK293H viability, CellTiter-Glo luminescence, 17 h; viability change, negative = cytotoxic: at 62 µM (top of the series) unless noted; further: potency means the concentration at half of the fitted maximal effect; nearly all actives have a fitted effect of over 50% in size
Outline: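 Cytotoxicity counter screen: CellTiter-Glo luminescence read 30 min after addition, in the same wells as the reporter assay. There, PPARd UAS-bla HEK293H cells (3000/well) were treated 17 h at 37 C with compound and 300 nM L165041.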

[7] = qHTS assay to identify small molecule agonists of the farnesoid-X-receptor (FXR) signaling pathway - cell viability counter screen (AID 743218); details: FXR-bla HEK293T viability, CellTiter-Glo luminescence, 16 h; viability change, negative = cytotoxic: at 62.6 µM (top of the series) unless noted; further: nearly all actives have a fitted effect of over 45% in size; further: potency means the concentration at half of the fitted maximal effect; on viability change, negative = cytotoxic: on the % scale 0 is the no-effect control and ±100 the full control effect
Outline: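 Cells were seeded, left 5 h at 37 C and 5% CO2, then dosed with compound in DMSO for 16 h. After the beta-lactamase FRET read, CellTiter-Glo was added and luminescence measured 30 min later.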

[8] = qHTS assay to identify small molecule antagonists of the vitamin D receptor (VDR) signaling pathway - cell viability counter screen (AID 743225); details: VDR-bla HEK293T viability, CellTiter-Glo luminescence, 16 h; viability change, negative = cytotoxic: at 61 µM (top of the series) unless noted; further: potency means the concentration at half of the fitted maximal effect; nearly all actives have a fitted effect of over 50% in size
Outline: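 HEK293T VDR-bla; cpd + 1a,25-(OH)2D3 3 nM final, 16 h 37C/5% CO2; B/G FRET substrate 2 h RT; then CellTiter-Glo 30 min RT, luminescence.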

[9] = qHTS assay to identify small molecule agonists of the NFkB signaling pathway - cell viability counter screen (AID 1159515; calls by dose curve; further: nearly all actives have a fitted effect of over 55% in size; further: potency means the concentration at half of the fitted maximal effect)
Outline: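 Cells are seeded (2,000 NFkB-bla ME-180 per well), rested overnight, and dosed with DMSO-dissolved compounds for 5 hr at 37 C. Viability is then read by CellTiter-Glo luminescence after 30 min at room temperature.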

[10] = qHTS assay to identify small molecule agonists of the endoplasmic reticulum stress response signaling pathway (AID 1159516; active means well fitted activation curve with a large enough effect in the signal ratio in the repeat runs, not every such curve was filed as active; inconclusive means weak or mixed curves, or effect the other way; the % refers to the signal ratio; further: potency means the concentration at half of the fitted maximal effect; on activation: on the % scale 0 is the no-effect control and ±100 the full control effect); details: ESRE-bla HeLa, ER stress beta-lactamase reporter, 5 h; activation: at 61 µM (top of the series) unless noted
Outline: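 Cells are seeded at 1,500 per well and incubated overnight. Compounds in DMSO are added for 5 hr at 37 C, then beta-lactamase FRET substrate for 2 hr at room temperature, and fluorescence at 460 and 530 nm is measured.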

[11] = target: Peroxisome proliferator-activated receptor gamma (Homo sapiens) (UniProt P37231); assay: qHTS assay to identify small molecule antagonists of the peroxisome proliferator-activated receptor gamma (PPARg) signaling pathway (AID 743191; calls by dose curve; further: on the % scale 0 is the no-effect control and ±100 the full control effect; nearly all actives have a fitted effect of over 30% in size); details: HEK293H PPARg-UAS-bla, beta-lactamase ratio, antagonist, 17 h; ratio activity, negative = inhibition: at 62.6 µM (top of the series) unless noted
Chain of UniProt P37231 (P37231 whole entry, looked up): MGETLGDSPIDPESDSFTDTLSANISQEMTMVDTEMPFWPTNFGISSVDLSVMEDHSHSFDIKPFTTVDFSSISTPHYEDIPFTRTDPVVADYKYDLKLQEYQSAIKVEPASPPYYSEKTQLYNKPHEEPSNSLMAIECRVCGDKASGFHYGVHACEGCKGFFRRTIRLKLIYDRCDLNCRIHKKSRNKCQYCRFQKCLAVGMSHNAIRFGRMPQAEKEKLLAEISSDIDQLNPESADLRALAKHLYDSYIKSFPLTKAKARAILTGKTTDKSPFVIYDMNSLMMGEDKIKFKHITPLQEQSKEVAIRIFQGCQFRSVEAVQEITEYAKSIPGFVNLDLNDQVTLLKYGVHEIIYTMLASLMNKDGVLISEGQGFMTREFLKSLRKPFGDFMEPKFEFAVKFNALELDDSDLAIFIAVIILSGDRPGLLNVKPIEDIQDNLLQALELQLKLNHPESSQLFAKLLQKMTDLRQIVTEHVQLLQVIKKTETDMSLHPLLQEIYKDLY
Outline: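 Beta-lactamase reporter under UAS control in HEK293H PPARg-bla cells; compound treatment 17 h at 37C. Read-out: fluorescence intensity after 1 h room-temperature incubation with LiveBLAzer B/G FRET substrate.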

[12] = qHTS assay for small molecule activators of the heat shock response signaling pathway (AID 743210; active means well fitted activation curve with a large enough effect in the signal ratio in the repeat runs, with a control signal flat, not every such curve was filed as active; inconclusive means weak or mixed curves; the % refers to the signal ratio; further: potency means the concentration at half of the fitted maximal effect); details: HeLa HSE-bla reporter, beta-lactamase ratio, 5 h; activation: at 62.6 µM (top of the series)
Outline: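 Fluorescence from a cleaved B/G FRET substrate (2.5 h, room temp) reports HSE-driven beta-lactamase in HeLa cells treated 5 h at 37 C with DMSO-dissolved compounds.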

[13] = target: Peroxisome proliferator-activated receptor delta (Homo sapiens) (UniProt Q03181); assay: qHTS assay to identify small molecule antagonists of the peroxisome proliferator-activated receptor delta (PPARd) signaling pathway (AID 743215; active means well fitted inhibition curve with a large enough effect in the signal ratio in the repeat runs, not every such curve was filed as active; inconclusive means weak or mixed curves, or effect the other way; inactive means no such curve, though single readings can be large or run the other way; the % refers to the signal ratio;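 further: cells stimulated with agonist L165041 at 300 nM final during compound exposure; on the % scale 0 is the no-effect control and ±100 the full control effect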); details: HEK293H PPARd-UAS-bla, beta-lactamase FRET ratio, antagonist, 17 h; ratio activity, negative = inhibition: at 62 µM (top of the series) unless noted
Outline: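 Cells: HEK293H with a UAS-driven beta-lactamase reporter responsive to PPARd. Compounds were co-added with L165041 (300 nM, final) and incubated 17 h at 37 C before a 2 h room-temperature FRET substrate step and fluorescence reading.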

[14] = qHTS assay to identify small molecule antagonists of the farnesoid-X-receptor (FXR) signaling pathway - cell viability counter screen (AID 743221; active means well fitted cell-killing curve with a large enough effect in the repeat runs, not every such curve was filed as active; inconclusive means weak or mixed curves, or effect the other way; inactive means no such curve, though single readings can be large or run the other way; further: potency means the concentration at half of the fitted maximal effect; nearly all actives have a fitted effect of over 50% in size); details: FXR-bla HEK293T viability, CellTiter-Glo luminescence, 16 h; activity change, negative = cytotoxicity: at 62.6 µM (top of the series) unless noted
Outline: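 Multiplexed counter screen: viability of FXR-bla HEK 293T cells under agonist stimulation by chenodeoxycholic acid (50 uM, final) and test compound for 16 h at 37 C, measured by CellTiter-Glo luminescence in the reporter wells.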

[15] = qHTS assay to identify small molecule agonists of the vitamin D receptor (VDR) signaling pathway - cell viability counter screen (AID 743224)
Outline: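 Cells: VDR-bla, 2,000/well, settled 4 h. Treatment: compounds in DMSO, 16 h, 37C/5% CO2. Readout: CellTiter-Glo luminescence after 30 min RT.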

[16] = target: Bile acid receptor (Homo sapiens) (UniProt Q96RI1); assay: qHTS assay to identify small molecule agonists of the farnesoid-X-receptor (FXR) signaling pathway (AID 743220; active means well fitted activation curve with a large enough effect in the signal ratio in the repeat runs, not every such curve was filed as active; inconclusive means weak or mixed curves, or effect the other way; the % refers to the signal ratio; further: on the % scale 0 is the no-effect control and ±100 the full control effect); details: HEK293T FXR-UAS-bla, beta-lactamase FRET ratio, 16 h; activation: at 62.6 µM (top of the series) unless noted
Chain of UniProt Q96RI1 (Q96RI1 whole entry, looked up): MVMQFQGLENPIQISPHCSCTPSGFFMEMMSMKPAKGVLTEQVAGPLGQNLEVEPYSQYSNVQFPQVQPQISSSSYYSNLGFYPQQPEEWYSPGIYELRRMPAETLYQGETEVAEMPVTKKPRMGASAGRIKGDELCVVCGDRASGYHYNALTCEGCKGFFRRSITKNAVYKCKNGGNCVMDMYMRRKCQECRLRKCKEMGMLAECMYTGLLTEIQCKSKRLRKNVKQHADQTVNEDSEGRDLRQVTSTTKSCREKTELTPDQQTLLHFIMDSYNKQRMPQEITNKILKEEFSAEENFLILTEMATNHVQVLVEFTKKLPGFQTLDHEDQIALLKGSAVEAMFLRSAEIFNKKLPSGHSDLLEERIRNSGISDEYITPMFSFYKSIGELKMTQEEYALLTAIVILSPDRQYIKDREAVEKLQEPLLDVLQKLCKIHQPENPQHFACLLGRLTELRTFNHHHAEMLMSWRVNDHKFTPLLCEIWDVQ
Outline: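 FXR-UAS-bla HEK 293T cells carrying a UAS-driven beta-lactamase reporter were plated for 5 h at 37C/5% CO2, then exposed to DMSO-dissolved Tox21 10K compounds for 16 h at 37C. A LiveBLAzer B/G FRET substrate was loaded for 2 h at room temperature before fluorescence reading.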

[17] = target: Vitamin D3 receptor (Homo sapiens) (UniProt P11473); assay: qHTS assay to identify small molecule antagonists of the vitamin D receptor (VDR) signaling pathway (AID 743223; active means well fitted inhibition curve with a large enough effect in the signal ratio in the repeat runs, not every such curve was filed as active; inconclusive means weak or mixed curves, or effect the other way; inactive means no such curve, though single readings can be large or run the other way; the % refers to the signal ratio; further: potency means the concentration at half of the fitted maximal effect); details: VDR-UAS-bla HEK293T, beta-lactamase FRET ratio, 16 h; activity change, negative = inhibition: at 61 µM (top of the series) unless noted
Chain of UniProt P11473 (P11473 whole entry, looked up): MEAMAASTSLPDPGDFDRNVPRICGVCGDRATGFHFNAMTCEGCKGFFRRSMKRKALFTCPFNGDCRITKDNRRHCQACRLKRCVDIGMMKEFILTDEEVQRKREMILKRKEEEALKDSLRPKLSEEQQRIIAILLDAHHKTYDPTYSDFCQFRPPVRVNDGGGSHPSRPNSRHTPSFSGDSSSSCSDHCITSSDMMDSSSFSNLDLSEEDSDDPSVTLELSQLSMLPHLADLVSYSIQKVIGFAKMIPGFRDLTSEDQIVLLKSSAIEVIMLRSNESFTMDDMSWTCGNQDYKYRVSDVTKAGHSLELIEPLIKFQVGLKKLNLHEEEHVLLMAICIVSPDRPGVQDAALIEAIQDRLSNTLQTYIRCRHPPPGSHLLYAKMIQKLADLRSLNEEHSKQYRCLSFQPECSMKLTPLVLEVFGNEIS
Outline: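 Cells carrying a VDR-driven beta-lactamase reporter (VDR-bla) were co-treated with compound and 3 nM final 1alpha,25-dihydroxyvitamin D3 for 16 h at 37C; reporter activity was measured as FRET substrate fluorescence after 2 h at room temperature.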

[18] = target: Vitamin D3 receptor (Homo sapiens) (UniProt P11473); assay: qHTS assay to identify small molecule agonists of the vitamin D receptor (VDR) signaling pathway (AID 743222; calls by dose curve; further: potency means the concentration at half of the fitted maximal effect); details: HEK293T VDR-UAS-bla, beta-lactamase FRET ratio, 16 h; activation: at 63.5 µM (top of the series) unless noted
Outline: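 Cells carrying a VDR-driven beta-lactamase reporter are seeded at 2,000 per well and rested 4 h. Compounds in DMSO are added for 16 h at 37C, and FRET substrate fluorescence is measured after 2 h at room temperature.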
Tags describe the fitted curve by direction and shape or compound fluorescence and quenching.

[Hg+2].[I-].[I-]
active: Potency [1] 8.71 µM | Potency [3] 27.5 µM | Potency [4] 2.19 µM | Potency [6] 3.47 µM | Potency [7] 3.09 µM | Potency [8] 5.49 µM | Potency [9] 7.76 µM
inconclusive: Potency [2] 12.2 µM [falling, full curve] | Potency [5] 0.692 µM [rising, partial curve] | Potency [10] 43.6 µM [falling, partial curve]

Nc1ccccc1C(=O)Oc1ccc2ccccc2c1
active: Potency [2] 21.7 µM
inconclusive: ratio activity, negative = inhibition [11] -21.1% | Potency [3] 61.6 µM [cytotoxic, partial curve, poor fit] | Potency [12] 61.6 µM [falling, partial curve, poor fit] | Potency [9] 54.9 µM [cytotoxic, single point]
inactive: Potency [7] | Potency [10]

N#CCc1ccccc1
inconclusive: activation [2] -17% [at 94.8 µM] | Potency [9] 56.2 µM [rising, partial curve, poor fit] | Potency [10] 0.891 µM [falling, single point]
inactive: Potency [11] | Potency [13]

CCOP(=O)(O)OCC (tested in a mixture with another compound)
inconclusive: Potency [2] 24.1 µM [falling, partial curve] | Potency [10] 61.2 µM [cytotoxic, single point]
active: Potency [6] 19.3 µM | Potency [7] 43.3 µM | Potency [14] 48.6 µM | Potency [15] 17.2 µM | Potency [9] 54.5 µM

N#CNC#N
inactive: Potency [16] | Potency [10]
inconclusive: Potency [8] 0.0018 µM [rising, full curve, poor fit] | Potency [9] 49.5 µM [cytotoxic, partial curve]

Cc1ccccc1CCl
inconclusive: activation [2] 10.1% | activity change, negative = inhibition [17] 22.4% | Potency [10] 21.9 µM [activator]
inactive: Potency [9]

O=[N+]([O-])c1cc(C(F)(F)F)cc([N+](=O)[O-])c1Cl
inconclusive: Potency [2] 19.4 µM [rising, partial curve] | activation [5] -4.8% [at 81.1 µM] | Potency [7] 31 µM [cytotoxic, partial curve, poor fit] | Potency [17] 12.4 µM [fluorescent, partial curve, poor fit] | Potency [9] 61.9 µM [cytotoxic, partial curve, poor fit] | activation [10] -3.33% [at 78.8 µM]
inactive: Potency [1]

C=CCC1([C@H](C)CCC)C(=O)NC(=O)NC1=O
inconclusive: activation [2] -11.9% | viability change, negative = cytotoxic [7] -42.4% [cytotoxic] [at 81.1 µM] | Potency [9] 61 µM [cytotoxic, partial curve, poor fit] | Potency [10] 0.153 µM [rising, partial curve, poor fit]
inactive: Potency [16]

CO[C@@H]1[C@H](OC(=O)NC(=O)CCl)CC[C@]2(CO2)[C@H]1[C@@]1(C)O[C@@H]1CC=C(C)C
active: Potency [7] 0.0021 µM
inconclusive: ratio activity, negative = inhibition [11] 14.1% [at 29.1 µM] | Potency [2] 2.36 µM [rising, partial curve] | Potency [3] 12 µM [cytotoxic, partial curve, poor fit] | Potency [12] 14.5 µM | activation [5] -2.26% [at 29.1 µM] | Potency [6] 8.46 µM [cytotoxic, partial curve, poor fit] | Potency [18] 2.13 µM [rising, full curve, poor fit] | Potency [17] 0.337 µM [activator, full curve, poor fit] | Potency [9] 15.1 µM [rising, partial curve] | activation [10] 1.39% [at 28.5 µM]

O=NN1CCNCC1
inconclusive: Potency [3] 61 µM [cytotoxic, single point] | Potency [12] 38.5 µM [activator] | Potency [7] 0.432 µM [cytotoxic, full curve] | Potency [8] 43.2 µM [cytotoxic, partial curve, poor fit] | Potency [9] 61 µM [rising, single point] | Potency [10] 68.4 µM [rising, single point]
inactive: Potency [11]
